Numbering of substitutions follows the chain as printed.

Data on ten molecules can be found in patent US20190169308A1 (ALLIGATOR BIOSCIENCE, published 2019).

B1: 1618LO11-1210LO1 (bispecific antibody, human IgG1, kappa)
heavy: EVQLLESGGGLVQPGGSLRLSCAASGFTFDYGSMYWVRQAPGKGLEWVSSISSGSGSTYYADSVKGRFTISRDNSKNTLYLQMNSLRAEDTAVYYCARSSYYGSYYSIDYWGQGTLVTVSS[no letters for human IgG1 constant region with changes]GGGGSGGGGSEVQLLESGGGLVQPGGSLRLSCAASGFDFESYAMSWVRQAPGKGLEWVSAISGSGGSTYYADSVKGRFTISRDNSKNTLYLQMNSLRAEDTAVYYCARYYGGYYSAWMDYWGQGTLVTVSSGGGGSGGGGSGGGGSDIQMTQSPSSLSASVGDRVTITCRASQSIRSALNWYQQKPGKAPKLLIYAASSLQSGVPSRFSGSGSGTDFTLTISSLQPEDFATYYCQQTYGYLHTFGQGTKLEIK
light: DIQMTQSPSSLSASVGDRVTITCRASQSISSYLNWYQQKPGKAPKLLIYAASSLHSGVPSRFSGSGSGTDFTLTISSLQPEDFATYYCQQYYDNLPTFGQGTKLEIKRTVAAPSVFIFPPSDEQLKSGTASVVCLLNNFYPREAKVQWKVDNALQSGNSQESVTEQDSKDSTYSLSSTLTLSKADYEKHKVYACEVTHQGLSSPVTKSFNRGEC
B2: 1618LO1-1210LO2 (bispecific antibody, human IgG1, kappa)
heavy: EVQLLESGGGLVQPGGSLRLSCAASGFTFDYGSMYWVRQAPGKGLEWVSSISSGSGSTYYADSVKGRFTISRDNSKNTLYLQMNSLRAEDTAVYYCARSSYYGSYYSIDYWGQGTLVTVSS[no letters for human IgG1 constant region with changes]GGGGSGGGGSEVQLLESGGGLVQPGGSLRLSCAASGFDFDSYAMSWVRQAPGKGLEWVSAISGRGGSTYYADSVKGRFTISRDNSKNTLYLQMNSLRAEDTAVYYCARYYGGYYSAWMDYWGQGTLVTVSSGGGGSGGGGSGGGGSDIQMTQSPSSLSASVGDRVTITCRASQSIRSALNWYQQKPGKAPKLLIYAASSLQSGVPSRFSGSGSGTDFTLTISSLQPEDFATYYCQQTYGYLHTFGQGTKLEIK
light: B1 light with S31Q, A50G, H55Q
B3: 1618LO3-1210 (bispecific antibody, human IgG1, kappa)
heavy: EVQLLESGGGLVQPGGSLRLSCAASGFTFSYGSMYWVRQAPGKGLEWVSSISSGSGSTHYADSVKGRFTISRDNSKNTLYLQMNSLRAEDTAVYYCARSSYYGSYYSIDYWGQGTLVTVSS[no letters for human IgG1 constant region with changes]GGGGSGGGGS[no letters for about 100 residues]YYGGYYSAWMDYWGQGTLVTVSSGGGGSGGGGSGGGGSDIQMTQSPSSLSASVGDRVTITCRASQSISSYLNWYQQKPGKAPKLLIYAASSLQSGVPSRFSGSGSGTDFTLTISSLQPEDFATYYCQQTYGYLHTFGQGTKLEIK
light: B1 light with S30R, S31Q, A50G
B4: 1618LO3-1210LO1 (bispecific antibody, human IgG1, kappa)
heavy: EVQLLESGGGLVQPGGSLRLSCAASGFTFSYGSMYWVRQAPGKGLEWVSSISSGSGSTHYADSVKGRFTISRDNSKNTLYLQMNSLRAEDTAVYYCARSSYYGSYYSIDYWGQGTLVTVSS[no letters for human IgG1 constant region with changes]GGGGSGGGGSEVQLLESGGGLVQPGGSLRLSCAASGFDFESYAMSWVRQAPGKGLEWVSAISGSGGSTYYADSVKGRFTISRDNSKNTLYLQMNSLRAEDTAVYYCARYYGGYYSAWMDYWGQGTLVTVSSGGGGSGGGGSGGGGSDIQMTQSPSSLSASVGDRVTITCRASQSIRSALNWYQQKPGKAPKLLIYAASSLQSGVPSRFSGSGSGTDFTLTISSLQPEDFATYYCQQTYGYLHTFGQGTKLEIK
light: B1 light with S30R, S31Q, A50G
B5: 1618LO3-1210LO2 (bispecific antibody, human IgG1, kappa)
heavy: EVQLLESGGGLVQPGGSLRLSCAASGFTFSYGSMYWVRQAPGKGLEWVSSISSGSGSTHYADSVKGRFTISRDNSKNTLYLQMNSLRAEDTAVYYCARSSYYGSYYSIDYWGQGTLVTVSS[no letters for human IgG1 constant region with changes]GGGGSGGGGSEVQLLESGGGLVQPGGSLRLSCAASGFDFDSYAMSWVRQAPGKGLEWVSAISGRGGSTYYADSVKGRFTISRDNSKNTLYLQMNSLRAEDTAVYYCARYYGGYYSAWMDYWGQGTLVTVSSGGGGSGGGGSGGGGSDIQMTQSPSSLSASVGDRVTITCRASQSIRSALNWYQQKPGKAPKLLIYAASSLQSGVPSRFSGSGSGTDFTLTISSLQPEDFATYYCQQTYGYLHTFGQGTKLEIK
light: B1 light with S30R, S31Q, A50G
B6: 1618LO1-1210LO1 (bispecific antibody, human IgG1, kappa)
heavy: EVQLLESGGGLVQPGGSLRLSCAASGFTFDYGSMYWVRQAPGKGLEWVSSISSGSGSTYYADSVKGRFTISRDNSKNTLYLQMNSLRAEDTAVYYCARSSYYGSYYSIDYWGQGTLVTVSS[no letters for human IgG1 constant region with changes]GGGGSGGGGSEVQLLESGGGLVQPGGSLRLSCAASGFDFESYAMSWVRQAPGKGLEWVSAISGSGGSTYYADSVKGRFTISRDNSKNTLYLQMNSLRAEDTAVYYCARYYGGYYSAWMDYWGQGTLVTVSSGGGGSGGGGSGGGGSDIQMTQSPSSLSASVGDRVTITCRASQSIRSALNWYQQKPGKAPKLLIYAASSLQSGVPSRFSGSGSGTDFTLTISSLQPEDFATYYCQQTYGYLHTFGQGTKLEIK
light: B1 light with S31Q, A50G, H55Q
B7: 1210-1618LO6 (bispecific antibody, human IgG1, kappa)
heavy: [no letters for about 100 residues]YYGGYYSAWMDYWGQGTLVTVSS[no letters for human IgG1 constant region with changes]GGGGSGGGGSEVQLLESGGGLVQPGGSLRLSCAASGFTFDYGSMYWVRQAPGKGLEWVSSISSGSGSTYYADSVKGRFTISRDNSKNTLYLQMNSLRAEDTAVYYCARSSYYGSYYSIDYWGQGTLVTVSSGGGGSGGGGSGGGGSDIQMTQSPSSLSASVGDRVTITCRASQSIRQYLNWYQQKPGKAPKLLIYGASSLQSGVPSRFSGSGSGTDFTLTISSLQPEDFATYYCQQYYDNLPTFGQGTKLEIK
light: B1 light with H55Q, Y91T, D93G, N94Y, P96H
B8: 1210-1618LO7 (bispecific antibody, human IgG1, kappa)
heavy: [no letters for about 100 residues]YYGGYYSAWMDYWGQGTLVTVSS[no letters for human IgG1 constant region with changes]GGGGSGGGGSEVQLLESGGGLVQPGGSLRLSCAASGFTFDYGSMYWVRQAPGKGLEWVSSISSGSGSTYYADSVKGRFTISRDNSKNTLYLQMNSLRAEDTAVYYCARSSYYGSYYSIDYWGQGTLVTVSSGGGGSGGGGSGGGGSDIQMTQSPSSLSASVGDRVTITCRASQSISSYLNWYQQKPGKAPKLLIYAASSLQSGVPSRFSGSGSGTDFTLTISSLQPEDFATYYCQQYYDNLPTFGQGTKLEIK
light: B1 light with H55Q, Y91T, D93G, N94Y, P96H
B9: 1210-1618LO10 (bispecific antibody, human IgG1, kappa)
heavy: [no letters for about 100 residues]YYGGYYSAWMDYWGQGTLVTVSS[no letters for human IgG1 constant region with changes]GGGGSGGGGSEVQLLESGGGLVQPGGSLRLSCAASGFTFDYGSMYWVRQAPGKGLEWVSSISSGSGSTHYADSVKGRFTISRDNSKNTLYLQMNSLRAEDTAVYYCARSSYYGSYYSIDYWGQGTLVTVSSGGGGSGGGGSGGGGSDIQMTQSPSSLSASVGDRVTITCRASQSISSYLNWYQQKPGKAPKLLIYGAESLQSGVPSRFSGSGSGTDFTLTISSLQPEDFATYYCQQYYDNLPTFGQGTKLEIK
light: B1 light with H55Q, Y91T, D93G, N94Y, P96H
B10: 1210-1618LO2 (bispecific antibody, human IgG1, kappa)
heavy: [no letters for about 100 residues]YYGGYYSAWMDYWGQGTLVTVSS[no letters for human IgG1 constant region with changes]GGGGSGGGGSEVQLLESGGGLVQPGGSLRLSCAASGFTFSYGSMYWVRQAPGKGLEWVSSISSGSGSTHYADSVKGRFTISRDNSKNTLYLQMNSLRAEDTAVYYCARSSYYGSYYSIDYWGQGTLVTVSSGGGGSGGGGSGGGGSDIQMTQSPSSLSASVGDRVTITCRASQSIRQYLNWYQQKPGKAPKLLIYSADSLQSGVPSRFSGSGSGTDFTLTISSLQPEDFATYYCQQYYDNLPTFGQGTKLEIK
light: B1 light with H55Q, Y91T, D93G, N94Y, P96H

For one assay, the target named is T1, CD137-bio (Ancell #502-030) (human, UniProt Q07011 24-186, biotinylated).
T1 construct: detection reagent of the dual ELISA
The experiment in a line: dual ELISA: coated 5T4-Fc, detection with CD137-bio. How it is done:
Bispecific binding to both targets, CD137 and 5T4, was evaluated using a standard ELISA protocol. Plates (#655074, Greiner Bio-One GmbH, Germany) were pre-coated with 0.5 μg/ml 5T4-Fc (obtained from Professor Peter Stern, University of Manchester) overnight. CD137-5T4 bsAb were diluted from 8 to 2×10⁻³ μg/ml in 1:4 dilutions and added in duplicates of 50 μl to each well. CD137-bio (Ancell #502-030) was used as detection antibody at 0.5 μg/ml and the binding was detected with Streptavidin-HRP (Pierce #21126). The ELISA was developed with SuperSignal ELISA PICO Chemiluminescent substrate (Thermo Scientific Pierce, Rockford, Ill. USA) during 2-10 minutes and read in an automated microplate based multi-detection reader (FLUOstar OPTIMA, Netherlands).
On the technique in general: ELISA stands for enzyme-linked immunosorbent assay.
Turning to B1, the binding result is listed as “binds”.

As for B2, the binding result was “binds”.

B3: the binding result is “binds”. Still for that read-out and setting: the value for B4 was “binds”. On the same count and under the same terms, under B5 stands “binds”; under B6, “binds”.

In a further assay the target is T2, recombinant human CD137-Fc (R&D #838-4B) (human, UniProt Q07011 24-186).
T2 construct: bought; also called CD137 (R&D #838-4B); not shown: Fc part, bought reagent, not described
The assay can be described thus: BLI Octet, bsAb on anti-Fab-CH1 tips, CD137-Fc as analyte. On the technique in general: In BLI a coated tip is dipped into the sample, and binding shifts an interference pattern.
Consider B7, for which the Kd (in general, the concentration at which binding is half-saturated) turned out to be 2.57 nM; the koff (in general, a measure of how fast the partners let go of each other) stood at 0.000768 s⁻¹; the kon – broadly, a measure of how fast the partners come together – was determined as 299000 M⁻¹ s⁻¹.

For the molecule B8, the Kd was 2.86 nM, the koff was 0.000814 s⁻¹ and the kon came to 285000 M⁻¹ s⁻¹. In the case of B9, the dissociation constant Kd came out at 3.38 nM, the koff worked out at 0.000948 s⁻¹ and the kon amounted to 280000 M⁻¹ s⁻¹.

On to B10, for which the Kd amounted to 1.64 nM, the koff amounted to 0.000461 s⁻¹ and the kon came out at 281000 M⁻¹ s⁻¹.
